Assay results published in patent US8697661B2, “Use of spinosyns and spinosyn compositions against herpesviridae viral infections” (priority 2009, dated 2014).

Test system: NCI-H460, a large cell lung carcinoma cell line
Test: Cellular bioenergetics, Seahorse XF-24 OCR and ECAR
Conditions: H460 cells

Question: For Spinosad, which “oxygen consumption decreased by, compared to the control” value (20 μg/mL spinosad in DMSO, 3 hours) is on record?
Answer: Its value is 50%.

Question: And the “ECAR (Extra Cellular Acidification Rate)” value (7.6 hours after treatment with spinosad)?
Answer: The value was “relatively unaffected”.
